Data: patent US20190359693A1

Assays:
Assay in all cases: cell-based or functional assay
[1] = target: hemagglutinin (HA) of influenza A/New Caledonia/20/99 (H1N1) (influenza A virus)
[2] = target: hemagglutinin (HA) of influenza B/Florida/04/06 (Yamagata) (influenza B virus)
[3] = target: hemagglutinin (HA) of influenza B/Malaysia/2506/04 (Victoria) (influenza B virus)
[4] = target: hemagglutinin (HA) of influenza A/WF/HK/MPA892/06 (H4) (influenza A virus)
[5] = target: hemagglutinin (HA) of influenza A/Vietnam/1194/04 (H5N1) (influenza A virus)
[6] = target: hemagglutinin (HA) of influenza A/California/07/09 (H1N1) (influenza A virus)
[7] = target: hemagglutinin (HA) of influenza B/Harbin/7/94 (Yamagata) (influenza B virus)
[8] = target: hemagglutinin (HA) of influenza A/Wisconsin/67/05 (H3N2) (influenza A virus)

Binder	Average neutralization titers [1] [nM]	Average neutralization titers [2] [nM]	Average neutralization titers [3] [nM]	Average neutralization titers [4] [nM]	Average neutralization titers [5] [nM]	Average neutralization titers [6] [nM]	Average neutralization titers [7] [nM]	Average neutralization titers [8] [nM]
MD2643 (Fc fusion) chain 1: EVQLVESGGGLVQPGGSLRLSCAVSISIFDIYAMDWYRQAPGKQRDLVATSFRDGSTNYADSVKGRFTISRDNAKNTLYLQMNSLKPEDTAVYLCHVSLYRDPLGVAGGMGVYWGKGALVTVSSGGGGSGGGGSEVQLVESGGGLVQPGGSLRLSCAVSISIFDIYAMDWYRQAPGKQRDLVATSFRDGSTNYADSVKGRFTISRDNAKNTLYLQMNSLKPEDTAVYLCHVSLYRDPLGVAGGMGVYWGKGALVTVSSGGGGSGGGGSEVQLVESGGGLVQAGGSLKLSCAASGRTYAMGWFRQAPGKEREFVAHINALGTRTYYSDSVKGRFTISRDNAKNTEYLEMNNLKPEDTAVYYCTAQGQWRAAPVAVAAEYEFWGQGTQVTVSS[gap - human IgG1 Fc with K409R (EU numbers)] chain 2: EVQLVESGGGLVQPGGSLRLSCAATGFTLENKAIGWFRQTPGSEREGVLCISKSGSWTYYTDSMRGRFTISRDNAENTVYLQMDSLKPEDTAVYYCATTTAGGGLCWDGTTFSRLASSWGQGTQVTVSSGGGGSGGGGSEVQLVESGGGLVQPGGSLKLSCAASGFTFSTSWMYWLRQAPGKGLEWVSVINTDGGTYYADSVKDRFTISRDNAKDTLYLQMSSLKSEDTAVYYCAKDWGGPEPTRGQGTQVTVSS[gap - human IgG1 Fc with changes]	7.4	2.8	12.4	9.3	12.4	2.8	5.2	12.4
MD2645 (Fc fusion) chain 1: EVQLVESGGGLVQAGGSLKLSCAASGRTYAMGWFRQAPGKEREFVAHINALGTRTYYSDSVKGRFTISRDNAKNTEYLEMNNLKPEDTAVYYCTAQGQWRAAPVAVAAEYEFWGQGTQVTVSSGGGGSGGGGSEVQLVESGGGLVQPGGSLRLSCAVSISIFDIYAMDWYRQAPGKQRDLVATSFRDGSTNYADSVKGRFTISRDNAKNTLYLQMNSLKPEDTAVYLCHVSLYRDPLGVAGGMGVYWGKGALVTVSSGGGGSGGGGSEVQLVESGGGLVQPGGSLRLSCAVSISIFDIYAMDWYRQAPGKQRDLVATSFRDGSTNYADSVKGRFTISRDNAKNTLYLQMNSLKPEDTAVYLCHVSLYRDPLGVAGGMGVYWGKGALVTVSS[gap - human IgG1 Fc with K409R (EU numbers)] chain 2: EVQLVESGGGLVQPGGSLRLSCAATGFTLENKAIGWFRQTPGSEREGVLCISKSGSWTYYTDSMRGRFTISRDNAENTVYLQMDSLKPEDTAVYYCATTTAGGGLCWDGTTFSRLASSWGQGTQVTVSSGGGGSGGGGSEVQLVESGGGLVQPGGSLKLSCAASGFTFSTSWMYWLRQAPGKGLEWVSVINTDGGTYYADSVKDRFTISRDNAKDTLYLQMSSLKSEDTAVYYCAKDWGGPEPTRGQGTQVTVSS[gap - human IgG1 Fc with changes]	14.8	2.8	8.8	2.8	14.8	2.3	3.7	29.6
